Recombinant human monoclonal antibodies (heavy:light variable regions). ELISA EC50 on the named antigen, from 10 µg/ml down; IC50 / IC90 against spike pseudovirus on 293T-ACE2 cells, 48 h; lower = stronger. Calls: IC50 above 1,000 ng/ml = non-neutralizing; EC50 above 1,000 ng/ml = non-binder. The source prints 1000 for neutralization that was not reached; it is given as >1000 ng/ml. Only binders of the Wuhan-Hu-1 domain have neutralization values.
Legend:
[1] = target: SARS-CoV-2 Wuhan-Hu-1 spike pseudovirus; assay: pseudovirus neutralization IC50; higher = weaker neutralization
Experimental: (§1)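 Single-round luciferase reporter pseudovirus mixed with antibody dilutions and put on 293T-ACE2 cells for 48 h; signal relative to no-antibody wells, four-parameter fit.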

[2] = target: SARS-CoV-2 Wuhan-Hu-1 spike pseudovirus; assay: pseudovirus neutralization IC90; higher = weaker neutralization
Experimental: as §1

[3] = target: SARS-CoV-2 Delta (B.1.617.2) spike RBD; assay: ELISA binding EC50; higher = weaker binding; ELISA of recombinant human antibody on coated antigen, from 10 µg/ml in fourfold dilutions; four-parameter fit.
[4] = target: SARS-CoV-2 Omicron BA.1 spike protein; assay: as above
[5] = target: SARS-CoV-2 Wuhan-Hu-1 spike receptor-binding domain; assay: as above

Binder | pseudovirus neutralization IC50 [1] [ng/mL] | pseudovirus neutralization IC90 [2] [ng/mL] | ELISA binding EC50 [3] [ng/mL] | ELISA binding EC50 [4] [ng/mL] | ELISA binding EC50 [5] [ng/mL]
B1070 (protein) chain 1: QVQLQESGPGPVKPSETLSLTCTVSGASVTSHNFYWSWIRQPPGKGLEWIGFFSSRGSPNYNPSLKSRVTISVDMSKSQFSLRLSSVTAADTAVYYCARETYFYDRNGNYLSDGFDSWGQGTLVTVS chain 2: DIQMTQSPSSLSASVGDSVTITCRASQTISTWLAWYQQKPGQAPKLLIYQASSLETGVPSRFSGSGSGTEFTLTIGSLQPDDFATYYCQQYKSSSPYTFGQGTKLEIK | 17.7 | 265 | 5.46 | 8.14 | 2.46
B1071 (protein) chain 1: QVQLVQSGAEVKKPGSSVKVSCKASGGTFSRYAIHWVRQAPGEGLEWVGGIIPMFGAADYAQKFQGRVTITADKSTSTAYMELSGLKSEDTAIYYCARGQIQWELLSFAVGVHFDYWGQGTLVTVSS chain 2: DIVMTQSPESLAVSLGERATIKCKSSQSVLYSSNNKNYLAWYQQKPGQPPKLLIYWASYRESGVPDRFSGSGSATDFTLTISSLQAEDVAVYYCQQSYPVPPYTFGQGTKLEIK | 2.62 | 27.5 | > 1000 | 4.15 | 3.26
B1072 (protein) chain 1: EVQLVQSGAEVKKPGKSLMISCKASGYSFTDYWINWVRQMPGKGLEWMGRIDPSDSYTNYSPSFQGHVTISADKSINTAFLQWSSLKASDTAVYYCARGQYHLDPIGHYFFDFWGQGALVTVSS chain 2: QSALTQPASVSGSLGQSITISCTGTSSDVGSYDLVSWYQQYPGKAPKLIIYEVIKRPSGVSNRFSGSKSGNTASLTISGLQADDEAHYYCCSYAGIITYVVFGGGTKLTVL | 14.2 | 111 | 6.78 | > 1000 | 3.63
B1073 (protein) chain 1: QVQLVQSGAEMKKPGSSVKVSCEAPGGTFTSYSINWVRQAPGQGLEWMGGIIPTLGTTNYGQKFQGRVTITADKSTSTAYMELSSLRSEDTAVYYCARGKLDFRSGFFYNFRSMDVWGKGTTVTVSS chain 2: DIQMTQSPSSLSASVGDRVTITCQASHDISSCLNWYQQKPGKAPKLLIYDASNLETGVPSRFSGSGSGTGFTFTISSLQPEDIATYYCQQYENLPLTFGGGTKVEI | 8 | 103 | > 1000 | 5.93 | 2.45
B1074 (protein) chain 1: QVQLVQSGAEVKKPGSSVKVSCKASGGTLSNYAISWVRQAPGQGLEWMGGIIPIFGTTNYAQKFQGRVTITADESTSTANMELDSLRSEDTALYFCATYSSGWYSMGDFYYYYMDVWGKGTTVTVSS chain 2: QSALTQPASVSGSPGQSITISCSGTSSDVGGFNYVSWFQQHPGKAPKLMICDVSFRPSGVSDRFSGSKSGNTASLTISGLQAEDEADYYCSSFTRTNTYVFGTGTKVT | > 1000 | > 1000 | 17 | 5.69 | 4.43
B1075 (protein) chain 1: EVQLVESGGGLIQPGGSLRLSCAASELIVSYNYMTWVRQAPGKGLEWVSIIYSGGSTFYADSVKGRFTISRDNSKNTLYLQMNSLRPEDTAVYYCARVLPTIWDAFDIWGQGTMVTVSS chain 2: DIQLTQSPSFLSASIGDKVTITCRASQGISSYLAWYQQKPGKAPKLLIYAASTLQSGVPSRFSGSGSGTEFTLTIDSLQPEDFATYYCQQLNSYPVGTFGQGTRLEIK | 8.16 | 28.2 | 4.49 | > 1000 | 4.7
B2003 (protein) chain 1: EVQLLESGGGLVQPGGSLTLSCAASGFSFSNYAMTWVRQPPGKGLEWVSGIGGYGGDTYYADSVKGRFTVSRDDSKNTLYLHMNNLRAEDTALYYCAKGVRSNSDYFEYWGQGTLVTVSS chain 2: DIQMTQSPSTLSASVRDRVSITCRASQSIGSWVAWYQQKPGKAPKLLIYDASNLESGVPSRFSGSGSGTEFTLTISSLQPDDFATYYCQHYNSYSATFGQGTKLEIK | > 1000 | > 1000 | 49.9 | 1.89 | 1.36
